About 550 (1.1%) of roughly 48,000 compounds were called active. Inconclusive results (about 4%) are left out. Cut-off read from the data, not from the text of the source: active = potency below about 15 µM; inconclusive = mostly about 16 µM to 33 µM; inactive = weaker than that. Some of the results follow.
Target: Lysosomal acid glucosylceramidase (Homo sapiens) (UniProt P04062)
Assay: Glucocerebrosidase;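 note: the screen sought inhibitors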
Details: purified enzyme, resorufin glucoside fluorescence (screen aimed at inhibitors), 20 min; series mostly up to 77 µM
How it was run: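 Normal human glucocerebrosidase (0.2 nM final) was assayed with resorufin β-D-glucopyranoside (30 uM final) in 50mM citric acid/KH2PO4, 10mM sodium taurocholate, 0.01% tween-20, pH 5.9. Compounds were titrated; fluorescence (Ex 548, Em 600) read after 20 min at RT.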
Potency is the fitted concentration of half-maximal effect.

UniProt P04062, sequence (P04062 whole entry, looked up): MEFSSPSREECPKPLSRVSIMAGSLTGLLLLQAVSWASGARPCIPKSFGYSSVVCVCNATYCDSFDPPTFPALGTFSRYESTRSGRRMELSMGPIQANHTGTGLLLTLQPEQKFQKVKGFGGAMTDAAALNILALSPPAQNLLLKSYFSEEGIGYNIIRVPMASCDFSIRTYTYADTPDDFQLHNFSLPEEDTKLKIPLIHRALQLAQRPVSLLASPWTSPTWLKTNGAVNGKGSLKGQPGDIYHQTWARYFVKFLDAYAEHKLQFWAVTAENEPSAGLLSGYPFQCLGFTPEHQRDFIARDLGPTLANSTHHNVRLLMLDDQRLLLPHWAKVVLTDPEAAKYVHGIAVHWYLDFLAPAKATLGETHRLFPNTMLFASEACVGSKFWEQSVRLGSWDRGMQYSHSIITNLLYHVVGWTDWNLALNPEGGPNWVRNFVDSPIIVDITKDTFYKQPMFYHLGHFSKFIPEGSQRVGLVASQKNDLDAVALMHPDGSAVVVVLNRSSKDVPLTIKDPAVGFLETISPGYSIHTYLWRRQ

Potency, inactive:
CCN(CC)CCNC(=O)c1nn(-c2ccc(C)cc2)c(=O)c2c1c1ccccc1n2C > 76.9 µM, O=C(CSCc1nc2ccccc2[nH]1)N1CCN(c2cccc(Cl)c2)CC1 > 76.9 µM, CC(=O)c1c(C)n([O-])c2cc(C)ccc2[n+]1=O > 76.9 µM, CC1=C(C)C(=O)NC(Nc2nc(C)c3cc(C)cc(C)c3n2)N1 (stereo not drawn) > 76.9 µM, C=C(C)CSc1nnc([C@@H]2CCCN2C(=O)OC(C)(C)C)o1 > 76.9 µM, O=P(OC1CCS(=O)(=O)C1)(c1ccccc1)c1ccccc1 (stereo not drawn) > 76.9 µM, O=C(CCS(=O)(=O)Cc1ccccc1F)N1CCc2ccccc2C1 > 76.9 µM, CC1(C)OC(=O)N(CCc2ccccc2)C1(C)O (stereo not drawn) > 76.9 µM, COC(=O)c1ccc(C)c(NC(=O)Cn2cnc3ccccc3c2=O)c1 > 76.9 µM, COCCCNC(=O)c1cc(C)nc2ccc(F)cc12 > 76.9 µM, Cc1ccccc1C(=O)N1CCC(C(=O)Nc2ccc(F)cc2)CC1 > 76.9 µM, CC1C(O)=C(c2nc3ccccc3[nH]2)C(=N)N1c1ccccc1 (stereo not drawn) > 76.9 µM, CCN(C1CCS(=O)(=O)C1)S(=O)(=O)c1cccs1 (stereo not drawn) > 76.9 µM, Cc1c(C(=O)NCc2cccnc2)oc2ccc(S(=O)(=O)N3CCCCCC3)cc12 > 76.9 µM, Cc1csc(NC(=O)c2nc3nccc(C)n3n2)n1 > 76.9 µM, COCCn1c(SCC(=O)NC(=O)NCc2ccccc2)nc2ccccc21 > 76.9 µM, O=C(c1cccc(F)c1)N1CCN(c2cccc(C(F)(F)F)c2)CC1 > 76.9 µM, Cc1ccc(S(=O)(=O)Cn2nnnc2CN2CCN(Cc3ccc4c(c3)OCO4)CC2)cc1 > 76.9 µM, Cc1cc(COc2ccccc2OCc2cc(C)no2)on1 > 76.9 µM, CCC1(C(=O)OC)NC(c2cccc(F)c2)C2C(=O)N(C)C(=O)C21 (stereo not drawn) > 76.9 µM, CCOc1ccc2[nH]c(=O)c(CN(CC3COCCO3)C(=O)C3CC3)cc2c1 (stereo not drawn) > 76.9 µM, O=C(CCNS(=O)(=O)c1cccc2nsnc12)N1CCc2ccccc21 > 76.9 µM, CCOC(=O)C1=C(C)N=C2SC(C)C(=O)N2C1/C=C/c1ccccc1OC (stereo not drawn) > 76.9 µM, Cc1ccc(CCNC(=O)C2CCC(=O)N2C(C)C)cc1 (stereo not drawn) > 76.9 µM, COc1cccc(C(=O)OCc2ccccc2C#N)c1O > 76.9 µM, CC1=C(C#N)C(NC(=O)c2ccco2)(C(F)(F)F)C(=O)N1 (stereo not drawn) > 76.9 µM, COc1ccc(-c2noc(CCCC(=O)NCc3ccco3)n2)cc1OC > 76.9 µM, COCCCNC(=O)CCN1C(=O)COc2ccccc21 > 76.9 µM, COC(=O)CSc1nnc([C@H](CC(C)C)NC(=O)OC(C)(C)C)o1 > 76.9 µM, Cc1sc2nc(SCC(=O)Nc3c(C)n(C)n(-c4ccccc4)c3=O)n(C)c(=O)c2c1C > 76.9 µM, Cc1cc(C)n(CCc2nc(-c3cccs3)cs2)n1 > 76.9 µM, CCOC(=O)c1ccc(NC(=O)C2CCCO2)cc1 (stereo not drawn) > 76.9 µM, COc1ccccc1N1CCN(C2=NS(=O)(=O)c3ccccc32)CC1 > 76.9 µM, CCOCCCNC(=O)c1ccccc1SC > 76.9 µM, COC(=O)C(C)n1cnc2c(cnn2-c2ccc(Cl)cc2)c1=O (stereo not drawn) > 76.9 µM, COc1cc(C2=NOC(C(=O)Nc3ccc(C)cc3)C2)cc(OC)c1OC (stereo not drawn) > 76.9 µM, Cc1cc(C)n(-c2ccn(Cc3ccc(Cl)cc3Cl)c(=O)n2)n1 > 76.9 µM, O=C(c1ccc2nc(N3CCOCC3)sc2c1)N1CCC2(CC1)OCCO2 > 76.9 µM, CCn1cc(S(=O)(=O)CC(=O)Nc2ccc(C)cc2)c2ccccc21 > 76.9 µM, COCc1c(C(N)=O)nnn1-c1nonc1N > 76.9 µM, CC1(C(=O)NC2CCCCCCC2)CCC(=O)N1CCN1CCOCC1 (stereo not drawn) > 76.9 µM, Cc1nn(Cc2ccc(Cl)c(Cl)c2)c(C)c1NC(=O)c1cc(-c2ccc3c(c2)OCO3)on1 > 76.9 µM, Cn1c(CNC(=O)c2ccco2)nnc1SCC(=O)N1c2ccccc2Sc2ccccc21 > 76.9 µM, CC1(C)Cc2c(sc(NC(=O)c3ccco3)c2C#N)CO1 > 76.9 µM, CCS(=O)(=O)N1CCC(C(=O)NCc2ccccn2)CC1 > 76.9 µM, COc1ccccc1CNC(=O)CCC(=O)Nc1nnc(C)s1 > 76.9 µM, CCCCn1c(S(=O)(=O)O)nc2ccccc21 > 76.9 µM, CCOC(=O)CSc1nc2ccccc2c(=O)n1CC > 76.9 µM, COCCCn1c(SCC(=O)Nc2nnc(C)s2)nnc1-c1ccoc1C > 76.9 µM, Cc1cc(SCC#N)n2nc(C)c(-c3ccccc3)c2n1 > 76.9 µM, COc1ccc(OC)c(C2=Nn3c(nnc3-c3cccc(OC(C)C)c3)SC2)c1 > 76.9 µM, NC(=NC(=O)c1ccccc1)C1=C(O)CCC1=O > 76.9 µM, COc1ccccc1N1CCN(C(c2ccc(F)cc2)c2nnnn2C(C)C)CC1 (stereo not drawn) > 76.9 µM, COc1ccc(Cc2c(O)nc(SC)n(C(C)=O)c2=O)cc1 > 76.9 µM, O=C(Nc1ccccc1C(=O)NCc1ccccc1)c1ccco1 > 76.9 µM, CC(C)(C)OC(=O)N1CCC[C@H]1c1nnc(SCc2ccccc2Cl)o1 > 76.9 µM, CNC(=O)CSc1nnc(-c2ccco2)n1-c1ccccc1OC > 76.9 µM, CC1CCc2c(sc3nc(SCC(=O)NCc4ccco4)nc(N)c23)C1 (stereo not drawn) > 76.9 µM
